According to patent US10463716B2 (UNIVERSITY OF MARYLAND, BALTIMORE, priority 2014, dated 2019):

T1: EGFP-tagged APJ receptor (Homo sapiens, UniProt P35414)
T1 construct: expressed in transfected cells
T1 sequence (P35414 1-380): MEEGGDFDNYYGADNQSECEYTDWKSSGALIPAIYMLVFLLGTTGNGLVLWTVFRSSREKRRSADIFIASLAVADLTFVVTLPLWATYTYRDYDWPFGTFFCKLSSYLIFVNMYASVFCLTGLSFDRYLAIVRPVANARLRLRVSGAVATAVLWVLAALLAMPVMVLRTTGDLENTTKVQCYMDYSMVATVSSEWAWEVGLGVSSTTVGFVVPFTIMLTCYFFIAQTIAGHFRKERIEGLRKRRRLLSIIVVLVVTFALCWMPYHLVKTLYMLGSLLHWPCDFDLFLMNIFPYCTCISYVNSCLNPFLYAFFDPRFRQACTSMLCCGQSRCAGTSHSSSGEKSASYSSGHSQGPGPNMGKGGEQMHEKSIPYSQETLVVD

B1: Fc-ELA-21: fusion protein: htPA secretion signal, human immunoglobulin Fc domain, hinge/linker, ELA-21 (protein)
chain: MDAMKRGLCCVLLLCGAVFVSPSQDI[human IgG1 Fc with changes not written out]GGGGSGGGGSGGGGSLRKHNCLQRRCMPLHSRVPFP
modifications: Synthetic Fc-ELA-21 or htPA-SS-Fc-ELA-21
B2: Fc-ELA-32: fusion protein: htPA secretion signal, human immunoglobulin Fc domain, hinge/linker, ELA-32; produced in HEK293 cells (protein)
chain: MDAMKRGLCCVLLLCGAVFVSPSQDI[human IgG1 Fc with changes not written out]GGGGSGGGGSGGGGSQRPVNLTMRRKLRKHNCLQRRCMPLHSRVPFP
modifications: Synthetic Fc-ELA-32 or htPA-SS-Fc-ELA-32
notes: fusion protein: htPA secretion signal, human immunoglobulin Fc domain, hinge/linker, ELA-32; produced in HEK293 cells

Tests used:
[1] = target: T1, EGFP-tagged APJ receptor; assay: Internalization assay, HEK293 cells expressing EGFP-tagged APJ receptor; format: cell-based; details: 0.2 μM, 30 min, HEK293 over-expressing APJ-EGFP
Protocol: Confocal imaging was performed with a Zeiss LSM510 microscope.
(§1) The respective vector was introduced into HEK293 cells to produce the fusion protein in supernatant for purification by Protein A affinity chromatography and the resulting fusion protein was used for functional studied in cells and in animals. […] Next, Fc-32 was administered into a mouse subcutaneously and collected blood for serum level measurement by Western blotting.

[2] = test system: Sprague-Dawley rats; assay: MI-induced heart failure by coronary artery ligation in rats, Fc-ELA-32; format: in vivo, rat
Protocol: It was studied whether Fc-ELA fusion proteins have cardioprotective activities in heart failure caused by myocardial infarction (MI) in rats. MI was inflicted by standard left anterior descending coronary artery ligation (CAL) in Sprague-Dawley rats (8-weeks old, male). One week post-operation, recombined Fc-ELA-32 protein was administrated by subcutaneous injection at the dosage of 300 μg/kg bodyweight/day for two weeks. Phosphate-buffered saline (PBS) was used as the control. One week after the administration or at the end of the four weeks of MI, cardiac performance was evaluated by a pressure transducer which was inserted retrograde from the right carotid artery to the left ventricle cavity. Heart tissue samples were taken and fixed with 4% paraformaldehyde for 24 hours and then embedded in paraffin and sectioned for histopathologic examination.
Apoptosis was assessed by terminal deoxynucleotidyl transferase-mediated dUTP nick end labeling (TUNEL) and caspase-3 activity assay. The TUNEL staining and methyl green counterstaining were performed using TdT-FragEL apoptosis detection kits (Calbiochem, San Diego, Calif.). TUNEL-positive nuclei in the LV free wall were counted within a 4-mm^2 square of field. The number was averaged over four randomly selected fields per section and five sections per heart.
Masson staining which specifically stains collagens in blue was conducted on tissue sections of the infarcted heart area. Collagen volume fraction (CVF) is calculated by dividing of the blue stained area, which scattered between the surviving myocytes and around the blood vessels by the total area. […]
Terminal deoxynucleotidyl transferase dUTP nick end labeling (TUNEL) is a method for detecting DNA fragmentation by labeling the terminal end of nucleic acids and is well used for measuring cell apoptosis. […] As a result, apoptotic cells were labeled by green fluorescence.

[3] = Serum level / pharmacokinetics of Fc fusion proteins; format: in vivo; details: mouse, subcutaneous
Protocol: as §1, with “blotting. In FIG. 18, Fc-ELA-32 acutely elevated 2 hours after subcutaneous administration and lasted up to 72 hours at a level above 0.5 μg/ml.” for “blotting.”

Molecule | APJ-EGFP translocation / endocytosis [1] | LVEDP ([2]; MI rats, 300 μg/kg bodyweight/day subcutaneous for two weeks) | decrease in collagen volume fraction (CVF) ([2]; infarcted heart, Masson staining, vs control heart) [%] | cardiomyocytes stained by PCNA (proliferation) ([2]; near the infarct region, vs control) | time serum level lasted above 0.5 μg/ml [3] | serum level ([3]; up to 72 hours, Western blotting)
B1 | caused translocation or endocytosis of the receptor into cytoplasm | – | – | – | – | –
B2 | caused translocation or endocytosis of the receptor into cytoplasm | decreased | 50 | more cardiomyocytes | up to 72 hours | above 0.5 μg/ml
